Among the data in the RNAGym collection of RNA variant scans (doi:10.7554/elife.90254) are self-cleavage values, retold here.

Read counts are not given, so values of variants with three or more changes are uncertain.

The labels stand for the following.
B1: LINE1-mini (parent)
chain: GGCAGAGCUCAACACAGCGUGGCAAAGUGGCUGUGGCUAGACUGCC

The data set covers variants of B1. The experiment in a line: self-cleavage, relative activity (ratio to wild type); higher = more cleavage; in vitro, sequencing; the parent is a self-cleaving ribozyme.
Consider A4G A6C C8A C15A G29A U32A C45A C46U, for which the self-cleavage turned out to be 0.17.
Then G19U G27U U43G, with 0.
The result for A12C G27C G29U C31A C45A reads 0; that for G1U C3U U9A G30A, 0.1; that for G1A G7U A25C, 0.14.
The result for C3U A6G G19U G36A reads 0.02; that for U9A C13A G17C G21U A25G G29A C31G, 0.24; that for G5A U9G G27A, 0.24.
Regarding G2A A12U G35C C37G, the self-cleavage was 0.11.
Then C3U C10U C42U C46G, with 0.08; and G27C U38A C46U, with 0.52; and A25U G30U G40U, with 0.05.
The result for G1U C23U C31A C37G reads 0.02.
The result for U28G U32A C37G U38A G44U reads 0.01; that for A6U C18G C37U, 0.06; that for C8U A25U G29U G40A, 0.05.
Regarding A12C C15A G21A, the self-cleavage stood at 0.02.
Then C23A G35A C45U, with 0.22; and G19U G22U C46A, with 0.93.
Regarding A16U C37U U38A, the self-cleavage worked out at 0.07.
Then G7A C31A G44C, with 0.1; and A11G U34A A41G, with 0.01; and G2A C13A C23G, with 0.13.
The result for C3U A11U A24U A25G G33A U38G reads 0.03; that for G1A U20G U28A, 0.07.
Regarding G19A G27A U32A, the self-cleavage is 0.11.
The result for G2A C31A C46A reads 0.15.
Then A6G C8G U9G C10A G35C G36A, with 0.01; and G5A A25U A26C G33A, with 0.02.
The result for C3G C10A G21U reads 0.02.
In the case of G2A U20C G30U, the self-cleavage came to 0.21.
The result for A6G A16G C23U G44A reads 0.02; that for G33A G35C G36C U38C A39G, 0.02; that for G1U C3U C13U C18U A41G, 0.22.
On to A16U G22C A39C C42A, for which the self-cleavage turned out to be 0.4.
The result for C8A A11C U28G reads 0.02; that for C8U A16G A25C G27A G36C, 0.08; that for G2A C8A C18G A25U, 0.23.
Then G2A C10U G17U G21A A39C, with 0.04; and A6U C10A G17A A25U, with 0.02.
Then G7A C18A G21A A25G G27A G36A, with 0.16.
Turning to A11C G17U G21U A24C, the self-cleavage was found to be 0.
Then A12C G27U A41G, with 0.08; and G22A C42U U43A, with 0.06; and A4G G21A G27U U28G G36C, with 0.02.
Then A6G C18U G33C G36U, with 0.01.
Then A14C A16U U28G, with 0.01.
On to A4U U20G G30A U34G, for which the self-cleavage was 0.02.
Then A4U U9C A12G G22A, with 0.01; and C3A A11U A14G G29A U43A, with 0.01; and U20G G21U G36A, with 0.03.
Then G7A A11C C13G G19C A24C, with 0.02.
Turning to G5U A16U C46G, the self-cleavage came to 0.08.
Then G5A G17C G21A C31A, with 0.13; and U9A A26G C46U, with 0.08; and C10A A12U U28G G33A, with 0.02.
For the variant A24G G33C C37U, the self-cleavage came to 0.05.
Take G1U A6U U32A: the self-cleavage was found to be 0.04.
The result for C15U U20C G33A U34G G36U reads 0.04.
Then G2A A12G C46A, with 0.06.
As to C8G C15A G17A G21A G36U, the self-cleavage was 0.17.
As for A11C U20G G27C C42U, the self-cleavage was 0.04.
The result for U9G C13U C18G reads 0.11.
Consider G7C C18U G27U C45G, for which the self-cleavage is 0.04.
Then A11U G19C U43A G44C, with 0.01; and G5U C18U G36C, with 0.02.
Turning to G5A A6C A39U, the self-cleavage came to 1.65.
The result for A12U G17U U32C C37A reads 0.01.
Then G5C A12C A14C C15U G21U G36U, with 0.02; and A6C G36A C46G, with 0.05.
The result for C3A A11G U20G G33U reads 0.02; that for G2C G5U C15U C42G, 0.03; that for G2A A11C G21C G22A G44U, 0.1.
As for G5C A11G A24U, the self-cleavage was 0.02.
The result for C3A G17U G30C reads 1.22; that for C13A G17C U32A C45U, 0.16; that for G30U C31A G40C, 0.02.
With A4G G7A C10A A14U, the self-cleavage came out at 0.01.
The result for G5C C8A A14C C18A G19A reads 0.07; that for A11C G19A C31U A41U, 0.04.
Then G1A A11U G35C, with 0.02; and G1U G7U A26C, with 0.03; and G5U A16U G33A G36A, with 0.04.
Then A4G U20G C37U A39G, with 0; and A11G A24C G27A, with 0.01.
As to G27C U34A G36U C45U, the self-cleavage turned out to be 0.05.
Consider A4G G17U G40A C42G, for which the self-cleavage came to 0.28.
For the variant G17C U32C G36A G40A, the self-cleavage came out at 0.08.
As to C18A G19A G44A, the self-cleavage came to 0.17.
The result for A6G G22A A26G U32C reads 0.01; that for C18A A25U G30C A41G, 0.02; that for A16C G17C G35C, 0.07.
The result for C10A G36A U38G reads 0.02.
Then G2A A11G A12C G27U G35C G40U C42A, with 0.01; and C8U A11U A16G C42A, with 0.01.
Regarding A4U U20G A25G U28G, the self-cleavage stood at 0.01.
The result for G17U C37G G44A reads 0.17; that for C10G A14U U28C G36A, 0; that for A16G G33A C46U, 0.06.
With G2A G5C C8U A12G C23A, the self-cleavage was 0.03.
For G21U C23U G27A C37A G40U, the self-cleavage was determined as 0.04.
Then G2A G33U U34G G40U, with 0.22; and C8A U9C C23U, with 0.04; and C15A G19U G30C, with 0.08.
Then C10G A16G G27A, with 0.05; and A6C G7C G36A C46G, with 0.17.
The result for G1C U9A A12G U20C reads 0.
G5A U9A C13A: the self-cleavage worked out at 0.65.
Consider G1C C10A C18U U34A, for which the self-cleavage stood at 0.01.
The result for G27A G30U A39U reads 0.33; that for G5C C15G A26G C37G, 0.01; that for C3G C18G G30A U32G G35C, 0.06.
Then G27U G30C U38C G40A, with 0.02.
Then A12G G21C A41C U43C C46U, with 0.02.
For the variant G5A C18G G19C G27A, the self-cleavage turned out to be 0.29.
The result for A11G C37A A39G G40A C42A reads 0.02; that for C3G G19C A24U U43C, 0.03; that for C18U G35C C42U, 0.01.
Then A16G G29C C31U, with 0.02.
Then C3G U9C G19A G21A G35A, with 0.03; and G2A G7A G19C U28C, with 0.08.
For A6C A25C G36A, the self-cleavage was found to be 0.04.
Regarding C3U U9C C15A, the self-cleavage turned out to be 0.05.
Then G7U A16G A39C, with 0.06; and G2U A6G C10A C18G, with 0.
Then G7A C8A G36C, with 0.72; and A4G G21C G29U, with 0.27.
Then A4U A25G G33C, with 0.02; and A14U G27C U32G G40U, with 0.05.
On to A25U C31A G35C, for which the self-cleavage amounted to 0.01.
The result for A12C A14G A16C G44A reads 0.02.
The result for G2C A26U A39U A41U reads 0.14; that for C3U G22C U28C C37A, 0.02; that for G1C A4G C8G U9C C46G, 0.04.
The result for U9C G17A C23G U34G reads 0.01.
Turning to G1C C23U G44U, the self-cleavage worked out at 0.04.
Take G1U A4G G5A C10G A12G G21U U28G G44U: the self-cleavage stood at 0.01.
With C8G G21U G36U, the self-cleavage was 0.07.
The result for A6U C15U A24U G30U reads 0.14.
The result for A16C C23U G36U reads 0.06; that for G1C C31A G36A C37U C42U, 0.04.
For C10A A16C G40A, the self-cleavage was determined as 0.
Then C18A C31U G36U A41C G44C, with 0.
The result for A4C C23G A26U reads 0.18.
Then C3G G33A C45A, with 0.05; and C15A G17A C37U, with 0.01; and C13A A16G A26U, with 0.02.
For C15A A24C A39C G44C, the self-cleavage is 0.01.
Then G2U A4U G21U, with 0.06.
Then A14U G27A G35U A39G, with 0.02; and U9G C13A G17U C31A, with 0.32; and G1C G22U U43C, with 0.04.
The result for G1U U9G U28A C46A reads 0.03; that for C13U C15U G35A A41C, 0.02.
With C18U A26U G29C A41G, the self-cleavage was found to be 0.55.
For C8G U9C G21C A24C, the self-cleavage amounted to 0.03.
The result for G1U C10A G27C C31A C37U reads 0.05; that for A4U G30U U38C, 0.03; that for G1A G7U A25C C42A, 0.23.
The result for C15A G21U U43G C45G C46A reads 0.01.
In the case of G5U G22A G35C G40U, the self-cleavage turned out to be 0.04.
The result for G2A A16C C18A G30A reads 0.3; that for C10A A16C A25G, 0.01.
As to A14C C15A U20C U32A, the self-cleavage was 0.03.
The result for A6U C15G A16U G30C C42U C46G reads 0.92; that for G7A C18A A24C A39C C42U, 0.05; that for A4U A14G G30A C31A U34A, 0.17.
